Reference: patent US20250122256A1 (TREX BIO, published 2025)

T1: human TNFR2 (hTNFR2) (human, UniProt P20333 23-257, limits assumed)
T1 construct: Used in solution as the analyte over the immobilised fusion molecule in BLI; also called TNFR-p75
T1 sequence (looked up): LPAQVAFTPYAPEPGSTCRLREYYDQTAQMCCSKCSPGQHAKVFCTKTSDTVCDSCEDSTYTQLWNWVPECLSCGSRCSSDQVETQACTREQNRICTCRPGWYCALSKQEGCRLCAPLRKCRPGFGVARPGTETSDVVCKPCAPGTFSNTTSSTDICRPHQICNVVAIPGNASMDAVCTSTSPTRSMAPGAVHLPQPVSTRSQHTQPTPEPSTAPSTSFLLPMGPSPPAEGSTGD

T2: human TNFR1 (hTNFR1) (human, UniProt P19438 30-211, limits assumed)
T2 construct: Used in solution as the analyte over the immobilised fusion molecule in BLI; also called TNFR-p55
T2 sequence (looked up): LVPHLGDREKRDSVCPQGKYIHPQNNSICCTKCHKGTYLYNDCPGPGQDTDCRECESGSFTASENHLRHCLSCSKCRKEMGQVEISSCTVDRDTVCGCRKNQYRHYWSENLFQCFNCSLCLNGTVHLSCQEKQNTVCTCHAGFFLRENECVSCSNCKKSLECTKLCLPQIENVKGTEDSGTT


Assays:
human TNFR2 (hTNFR2) [1] = target: T1, human TNFR2 (hTNFR2); assay: BLI, ratio of KD to wild-type fusion
Experimental: (§1) The binding affinity and selectivity of TNF-alpha variant fusion molecules for human TNFR2 (hTNFR2) and human TNFR1 (hTNFR1) receptors was analyzed by bio-layer interferometry (BLI). BLI binding studies were conducted using standard methods, where recombinant TNF-alpha variant fusion molecule was immobilized on the biosensor tip for experimentation. All experiments were performed at 30° C. with shaking at 1,000 r.p.m, and anti-IgG Fc biosensors were pre-equilibrated in K buffer, consisting of a 1/10 dilution of 0.2% BSA, 0.02% Tween20, 0.05% ProClin300 into PBS (138 mM NaCl, 2.7 mM KCl pH 7.4) for at least 300 seconds before use in experiments. 2 g/mL TNF-alpha variant fusion molecule was loaded onto anti-IgG Fc biosensors until a loading height of 0.6 nm was reached and flowed the difference in concentrations of hTNFR2 or hTNFR1, or buffer as control, for 200 seconds. Then both dissociate in K buffer for 400 seconds. Data was analyzed using standard methods. Calculated binding affinity is seen in Table 5.

human TNFR1 (hTNFR1) [2] = target: T2, human TNFR1 (hTNFR1); assay: BLI, ratio of KD to wild-type fusion
Experimental: as §1

human TNFR1 (hTNFR1) [3] = target: T2, human TNFR1 (hTNFR1); assay: BLI, fusion molecule on anti-IgG Fc biosensor, hTNFR1 in solution, 30 C
Experimental: as §1

human TNFR2 (hTNFR2) [4] = target: T1, human TNFR2 (hTNFR2); assay: BLI, fusion molecule on anti-IgG Fc biosensor, hTNFR2 in solution, 30 C
Experimental: as §1

human TNFR1 (hTNFR1) [5] = target: T2, human TNFR1 (hTNFR1); assay: BLI, fusion molecule on anti-IgG Fc biosensor, hTNFR1 in solution
Experimental: as §1

Row | fold decrease in binding affinity against the wild-type TNF-alpha variant fusion molecule (human TNFR2 (hTNFR2) [1]) [fold] | fold decrease in binding affinity against the wild-type TNF-alpha variant fusion molecule (human TNFR1 (hTNFR1) [2]) [fold] | Kd (human TNFR1 (hTNFR1) [3]) [nM] | Kd (human TNFR2 (hTNFR2) [4]) [nM] | binding result (human TNFR1 (hTNFR1) [5]) | Binder
1 | 3.6 | 416 | 3180 | 122 |  | Variant 1 (D143N (C-term Fc) TNF-alpha variant fusion molecule) (Fc fusion) [here about 150 residues without letters]GGGGSSSRTPSDKPVAHVVANPQAEGQLQWLNRRANALLANGVELRDNQLVVPSEGLYLIYSQVLFKGQGCPSTHVLLTHTISRIAVSYQTKVNLLSAIKSPCQRETPEGAEAKPWYEPIYLGGVFQLEKGDRLSAEINRPDYLNFAESGQVYFGIIALGGGGSSSRTPSDKPVAHVVANPQAEGQLQWLNRRANALLANGVELRDNQLVVPSEGLYLIYSQVLFKGQGCPSTHVLLTHTISRIAVSYQTKVNLLSAIKSPCQRETPEGAEAKPWYEPIYLGGVFQLEKGDRLSAEINRPDYLNFAESGQVYFGIIALGGGGS[here human IgG1 Fc with C220S L234A L235A P331S (EU numbers) without letters]
2 | 7.6 |  |  | 258 | no binding | Variant 5 (D143Y, A145G (C-term Fc) TNF-alpha variant fusion molecule) (Fc fusion, also called D143Y/A145G, C-terminal Fc; D143Y/A145G TNF-alpha variant fusion molecule) [here about 150 residues without letters]GGGGSSSRTPSDKPVAHVVANPQAEGQLQWLNRRANALLANGVELRDNQLVVPSEGLYLIYSQVLFKGQGCPSTHVLLTHTISRIAVSYQTKVNLLSAIKSPCQRETPEGAEAKPWYEPIYLGGVFQLEKGDRLSAEINRPDYLYFGESGQVYFGIIALGGGGSSSRTPSDKPVAHVVANPQAEGQLQWLNRRANALLANGVELRDNQLVVPSEGLYLIYSQVLFKGQGCPSTHVLLTHTISRIAVSYQTKVNLLSAIKSPCQRETPEGAEAKPWYEPIYLGGVFQLEKGDRLSAEINRPDYLYFGESGQVYFGIIALGGGGS[here human IgG1 Fc with C220S L234A L235A P331S (EU numbers) without letters]
3 | 2 | 43.5 | 333 | 67.6 |  | Variant 2 (A145R (C-term Fc) TNF-alpha variant fusion molecule) (Fc fusion) [here about 150 residues without letters]GGGGSSSRTPSDKPVAHVVANPQAEGQLQWLNRRANALLANGVELRDNQLVVPSEGLYLIYSQVLFKGQGCPSTHVLLTHTISRIAVSYQTKVNLLSAIKSPCQRETPEGAEAKPWYEPIYLGGVFQLEKGDRLSAEINRPDYLDFRESGQVYFGIIALGGGGSSSRTPSDKPVAHVVANPQAEGQLQWLNRRANALLANGVELRDNQLVVPSEGLYLIYSQVLFKGQGCPSTHVLLTHTISRIAVSYQTKVNLLSAIKSPCQRETPEGAEAKPWYEPIYLGGVFQLEKGDRLSAEINRPDYLDFRESGQVYFGIIALGGGGS[here human IgG1 Fc with C220S L234A L235A P331S (EU numbers) without letters]
4 | 7 |  |  | 238 | no binding | Variant 3 (D143N, A145R (C-term Fc) TNF-alpha variant fusion molecule) (Fc fusion, also called D143N/A145R, C-terminal Fc) [here about 150 residues without letters]GGGGSSSRTPSDKPVAHVVANPQAEGQLQWLNRRANALLANGVELRDNQLVVPSEGLYLIYSQVLFKGQGCPSTHVLLTHTISRIAVSYQTKVNLLSAIKSPCQRETPEGAEAKPWYEPIYLGGVFQLEKGDRLSAEINRPDYLNFRESGQVYFGIIALGGGGSSSRTPSDKPVAHVVANPQAEGQLQWLNRRANALLANGVELRDNQLVVPSEGLYLIYSQVLFKGQGCPSTHVLLTHTISRIAVSYQTKVNLLSAIKSPCQRETPEGAEAKPWYEPIYLGGVFQLEKGDRLSAEINRPDYLNFRESGQVYFGIIALGGGGS[here human IgG1 Fc with C220S L234A L235A P331S (EU numbers) without letters]
5 | 6.2 |  |  | 210 | no binding | Variant 4 (D143N, A145R (N-term Fc) TNF-alpha variant fusion molecule) (Fc fusion, N-terminal IgG1 Fc L234A/L235A/P331S followed by a single-chain trimer of D143N/A145R TNF-alpha units; also called D143N/A145R, N-terminal Fc) [here about 400 residues with a human IgG1 Fc without letters]GGGGSSSRTPSDKPVAHVVANPQAEGQLQWLNRRANALLANGVELRDNQLVVPSEGLYLIYSQVLFKGQGCPSTHVLLTHTISRIAVSYQTKVNLLSAIKSPCQRETPEGAEAKPWYEPIYLGGVFQLEKGDRLSAEINRPDYLNFRESGQVYFGIIALGGGGSSSRTPSDKPVAHVVANPQAEGQLQWLNRRANALLANGVELRDNQLVVPSEGLYLIYSQVLFKGQGCPSTHVLLTHTISRIAVSYQTKVNLLSAIKSPCQRETPEGAEAKPWYEPIYLGGVFQLEKGDRLSAEINRPDYLNFRESGQVYFGIIAL
6 | 4.8 |  |  | 164 | no binding | Variant 6 (D143Y, A145G (N-term Fc) TNF-alpha variant fusion molecule) (Fc fusion, N-terminal IgG1 Fc L234A/L235A/P331S followed by a single-chain trimer of D143Y/A145G TNF-alpha units; also called D143Y/A145G, N-terminal Fc) [here about 400 residues with a human IgG1 Fc without letters]GGGGSSSRTPSDKPVAHVVANPQAEGQLQWLNRRANALLANGVELRDNQLVVPSEGLYLIYSQVLFKGQGCPSTHVLLTHTISRIAVSYQTKVNLLSAIKSPCQRETPEGAEAKPWYEPIYLGGVFQLEKGDRLSAEINRPDYLYFGESGQVYFGIIALGGGGSSSRTPSDKPVAHVVANPQAEGQLQWLNRRANALLANGVELRDNQLVVPSEGLYLIYSQVLFKGQGCPSTHVLLTHTISRIAVSYQTKVNLLSAIKSPCQRETPEGAEAKPWYEPIYLGGVFQLEKGDRLSAEINRPDYLYFGESGQVYFGIIAL
